We go through 86 compounds from PubChem BioAssay (NCI).

Values joined by “and” are separate entries in the source; they are usually repeats but may differ in a detail not shown here. Equal values may be shown once.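 A five-concentration, 48-hour dose response in 96-well plates underlies each endpoint, interpolated linearly between surrounding concentrations. Here, GI50 denotes the concentration required for 50% inhibition of growth. TGI: concentration producing complete growth inhibition.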 Square brackets hold non-standard residues; d marks the D form. Peptide text beside a SMILES is read from it. pGlu = O=C1CC[CH](C(=O)O)N1; Thz = O=C(O)[CH]1CSCN1

The subject of this test is NCI-H322M lung. The test is described as follows: DTP human tumour cell line panel, 48 h.
Consider `CCC(CC)n1cnc2c(-c3cnc(N)cn3)nc(N3CC4CCC(C3)O4)nc21`, for which the GI50 was 0.352 µM and the TGI is over 100 µM.
As to `CC1CCN(C(C)C)P(=S)(Cc2ccccc2)O1` (centres undefined), the TGI is over 100 µM.
Still for that read-out and setting: as for `C(=N\c1nc2cc3sc(/N=C/c4ccccc4)nc3cc2s1)/c1ccccc1`, the figure is over 100 µM.
For the compound `COc1ccccc1C#Cc1ccccc1C#Cc1ccc(OCCCCCCOc2ccccc2C#Cc2ccccc2C#Cc2ccccc2OC)cc1`, the GI50 was over 100 µM and the TGI is over 100 µM.
With `Cc1c(Cn2c(C)nc3c(C(=O)O)cc(N4CCOCC4)cc32)cccc1C(F)(F)F`, the GI50 is 66.3 µM and the TGI was over 100 µM.
Regarding `COc1cc(-n2ccnc2-c2ccc3ccccc3c2)cc(OC)c1OC`, the GI50 is 0.47 µM and the TGI is over 100 µM.
In turn, `O=C1c2ccccc2C(=O)N1CCc1ncc(-c2ccccc2)[nH]1` yielded a concentration for total growth inhibition (TGI) of over 100 µM.
On the same count and under the same terms, under `CCOC(=O)C12CCC(=O)N1N(C)c1ncccc1N2` (centres undefined) stands over 100 µM.
As to `COc1ccc2cc(-c3cnc4nonc4n3)ccc2c1`, the GI50 was 5.38 µM and the TGI is over 100 µM.
`OC1NC2Nc3ccccc3NC2NC1O` (centres undefined) had a TGI of over 100 µM.
With `CCC1=C(c2ccc(OC)cc2)C(C)(C)Oc2c1ccc(O)c2CN1CCCC1`, the GI50 is 2.5 µM and the TGI was determined as 9.2 µM.
Consider `COc1ccc(Nc2nc(NCCNc3ccnc4cc(Cl)ccc34)nc(N3CCOCC3)n2)cc1`, for which the GI50 was 10.3 µM and the TGI is 22.6 µM.
As to `COc1ccc2c(c1)c(-c1nc(-c3cn(C)c4ccncc34)cs1)cn2C`, the GI50 is 1.78 µM and the TGI was found to be 3.42 µM.
Turning to `Cc1ccc(CNc2ccc3nc(CCC4CCCCC4)[nH]c3c2)cc1`, the GI50 is 2.97 µM and the TGI is 75.6 µM.
`CCOP(=O)(CC(=O)C1CC1)OCC` yielded a TGI of over 100 µM.
Take `O=C1c2c(c(=O)[nH]c3ccccc23)[C@H](c2ccccc2)[C@@H]2CCCN12`: the GI50 was 2.74 µM and the TGI was determined as 13.4 µM.
In turn, `CSC(=O)C[C@@]12O[C@@H]([C@@H](C)C3CCC4[C@@H]5C(O)CC6=CC(=O)C=C[C@]6(C)C5CC[C@@]43C)C[C@](C)(O1)C(C)(C)O2` (some centres undefined) gave a TGI of 33.4 µM.
With `Cc1cc(OCc2nnc3n2S(=O)(=O)c2ccccc2N3C)ccc1Cl`, the TGI is over 100 µM.
Regarding `CC(=O)O.CN1[CH-]N(Cc2ccc(C#N)cc2)c2ccccc21.[Ag+]`, the GI50 is 53 µM and the TGI was over 100 µM.
In the case of `CC(Oc1ccc2c(-c3ccc(Cl)cc3)cc(=O)oc2c1)C(=O)O` (centres undefined), the concentration for total growth inhibition (TGI) is over 100 µM.
For `O=C1c2ccccc2N(O)C1(c1ccccc1)C1CCCC=C1N1CCOCC1` (centres undefined), the TGI is over 100 µM.
For the compound `COC(=O)Nc1nc2ccc(NS(=O)(=O)c3cccs3)cc2[nH]1`, the TGI was over 100 µM.
Consider `CCOC(=O)C12CCCC1(O)N(NC(=O)OC)C(C)=C2C(=O)OC` (centres undefined), for which the TGI was over 100 µM.
As to `O=C(Nc1ccccc1)N(CCN(Cc1ccccc1)C(=O)Nc1ccccc1)CCN(Nc1ccccc1)C(=O)Nc1ccccc1`, the TGI was over 100 µM.
With `C(=N\Nc1ncc(-c2cc3cc4c(cc3o2)OCO4)s1)/c1ccco1`, the GI50 is 4.15 µM and the TGI is 24.2 µM.
With `O=c1onc2n1-c1ccc(Cl)cc1C(=S)N1CSCC21` (centres undefined), the TGI was over 100 µM.
Still for that read-out and setting: as for `CC(C)(C)C1=CC(=N/N=c2\scc(-c3ccccc3)n2-c2ccccc2)C=C(C(C)(C)C)C1=O`, the figure is over 100 µM.
Consider `COc1nc(N)nc2c1ncn2C1CC(O)C(CO)O1` (centres undefined), for which the concentration for total growth inhibition (TGI) is over 100 µM.
In the case of `COc1cc(C2C=C(c3ccccc3)Oc3cc4c(cc32)OCO4)cc(OC)c1OC` (centres undefined), the TGI was over 100 µM.
For the compound `Cc1cc(N(CCC#N)CCC#N)ccc1/C(N=Nc1ccc([N+](=O)[O-])cc1)=N\NC(=O)c1cc(Cl)ccc1O`, the TGI is over 100 µM.
As for `CCSC[C@@H]1C[C@](O)(c2ccc(Cl)cc2)[C@@H](c2ccc(Cl)cc2)O1`, the GI50 was 19.4 µM and the TGI amounted to 39.8 µM.
In turn, `CC1(C)Oc2ccc3ccc(=O)oc3c2C(O)C1O` (centres undefined) had a TGI of over 100 µM.
Turning to `Cc1ccc2nc3ccccc3c(C3C4C(=O)N(c5ccc(F)cc5)C(=O)C4ON3C(C(N)=O)c3ccccc3)c2c1` (centres undefined), the TGI was over 100 µM.
As to `CN(C)c1ccc(/C=N/NC(N)=S)nc1`, the GI50 is 6.46 µM and the TGI was over 100 µM.
On to `Cc1ccc(S(=O)(=O)ON2C(=O)c3cccc4cc([N+](=O)[O-])cc(c34)C2=O)cc1`, for which the TGI was over 100 µM.
With `Cc1ccc2c(C(C[N+](=O)[O-])c3ccccc3)c(-c3ccccc3)[nH]c2c1` (centres undefined), the GI50 is 37.3 µM and the TGI was over 95 µM.
Turning to `COC(=O)CCc1ccc(CCC(=O)OC)cc1`, the TGI is over 100 µM.
As to `C[C@H](Nc1nc(N)c(N=O)c(=O)n1C)C(=O)O`, the TGI is over 10 µM.
As to `COc1ccc2c(c1)CCC1C2CC[C@@]2(C)C1CC[C@@H]2NC(=O)Cc1ccc(O)c(O)c1` (some centres undefined), the GI50 is 18.9 µM and the TGI stood at 39.4 µM.
`C=C1C2CCC3C4(C)CCCC(C)(C(=O)O)C4CCC3(C2)C1OC(=O)/C(C)=C/C` (centres undefined): the TGI is over 100 µM.
In the case of `S=P1(Sc2ccccc2)Oc2ccc3ccccc3c2-c2c(ccc3ccccc23)O1`, the TGI was over 93.3 µM.
`CSc1cc([C@@H]2C[C@H]2c2ccc(Cl)cc2)on1`: the GI50 was 23.7 µM and the TGI was 71.8 µM.
In turn, `CN(O)C(=O)CCC(NC(=O)CCC(N)C(=O)O)C(=O)NCC(=O)O` (centres undefined) registered a TGI of over 100 µM.
On to `Cn1ncc(Cl)c1-c1cc(C(=O)N[C@H](CN)Cc2cccc(F)c2)sc1Cl`, for which the GI50 is 2.6 µM and 5.87 µM; the TGI was > 10 µM and 19.7 µM.
Consider `COc1cc2nc(Nc3cccc(Cl)c3)nc(N)c2cc1OC`, for which the GI50 is 9.84 µM and the TGI was found to be 24.4 µM.
Compound `COc1ccc(C(=O)C2CCC(C(=O)O)C2)cc1` (centres undefined) gave a TGI of over 100 µM.
As for `Cc1ncn(-c2ccccc2O)c1C`, the TGI is over 100 µM.
For the compound `COc1cnc2c(c1)C(=O)c1c-2n(CCCN2CCCC2)c(=O)c2cc([N+](=O)[O-])ccc12`, the GI50 was 0.0522 µM and the TGI turned out to be 6.14 µM.
As for `COC1OC2COC1(OCc1ccccc1)C1OC(C)(C)OC21` (centres undefined), the TGI is over 100 µM.
For `Cc1c(NC(=S)Nc2ccc([N+](=O)[O-])cc2)c(=O)n(-c2ccccc2)n1C`, the TGI is over 100 µM.
`ClCc1nc2ccccc2[nH]1` gave a TGI of over 100 µM.
`Oc1ccccc1-c1nn(CNc2ccc(Cl)cc2)c(=S)o1`: the GI50 was 8.96 µM and the TGI was over 100 µM.
With `CCOC(=O)C(=Cc1ccc(C#N)cc1)C(=O)OCC`, the GI50 was 3.48 µM and the TGI amounted to 14.4 µM.
`CC1=CCC2CC1C(C(=O)c1c[nH]c3ccccc13)=NC2(C)C` (centres undefined) returned a TGI of over 100 µM.
`NC1=Nc2ccccc2Sc2nncn21`: the TGI was over 100 µM.
On to `CCCc1nn(C)c2c(=O)[nH]c(-c3cc(S(=O)(=O)N4CCN(C)CC4)ccc3OCC)nc12`, for which the GI50 was over 100 µM and the TGI was over 100 µM.
As for `NC(=O)c1cc(N2CC2)c([N+](=O)[O-])cc1[N+](=O)[O-]`, the GI50 was over 200 µM and the TGI is over 200 µM.
On to `CC(NC1=NCCO1)c1ccccc1Cl` (centres undefined), for which the TGI was over 100 µM.
As for `COc1ccc(CC(=O)NCCc2ccc(OC)c(OC)c2OC)cc1`, the TGI was over 100 µM.
`O=C(O)c1cccc(S(=O)(=O)NCCO)c1` displayed a TGI of over 100 µM.
On to `O=[N+]([O-])c1ccc(-c2csc(N=Nc3c(O)[nH]c4ccccc34)n2)cc1`, for which the TGI was over 100 µM.
As to `CSC(=NC(=O)c1ccccc1Cl)SCCSC(=NC(=O)c1ccccc1Cl)SC`, the TGI is over 100 µM.
On the same count and under the same terms, as for `COc1ccc2[nH]cc(CCNC(=O)[C@H](Cc3ccc(O)cc3)NC(=O)[C@@H](NCC(F)(F)F)C(C)C)c2c1`, the figure is over 100 µM; as for `CCOC(=O)C(NC(=O)c1cccc(Cl)c1)(Nc1ccc(S(=O)(=O)Nc2cc(C)on2)cc1)C(F)(F)F` (centres undefined), over 100 µM.
Compound `COC(=O)C1CCC(=O)N1C(c1ccc(OC)cc1)c1cc(OC)c(OC)c(OC)c1` (centres undefined) returned a TGI of over 31.6 µM.
Compound `Fc1cc(C2=Nn3c(COc4ccccc4Cl)nnc3S/C2=C\c2ccc(Cl)cc2)c(Cl)cc1Cl` had a TGI of over 100 µM.
Still for that read-out and setting: under `C=C1C(C(=O)OC)[C@H]1C(=O)OC` (some centres undefined) stands over 100 µM; under `CCOC(=O)c1c(N)sc2c1CC(C)CC2` (centres undefined), over 100 µM.
`COC(=O)CCC(=O)Nc1ccc(Cl)cc1C` had a TGI of over 100 µM.
Compound `COc1ccc(S(=O)(=O)Nc2ccc(-c3csc(N4C(=O)/C(=C/c5ccccc5[N+](=O)[O-])N=C4c4ccccc4)n3)cc2)cc1Cl` came in with a TGI of over 100 µM.
As for `CN(C)c1ccc(/C=c2\sc3nnc(-c4ccco4)n3c2=O)cc1`, the TGI was over 100 µM.
`O=C(O)Cc1cccc2c(=O)cc(-c3ccccc3)oc12`: the GI50 was over 1000 µM and the TGI is over 1000 µM.
Compound `CC1C(C)(C)C23CC12C1(OCCO1)C3Br` (centres undefined) had a TGI of over 100 µM.
Consider `COc1cc2nc(N3CCCN(C)CC3)nc(NC3CCN(Cc4ccccc4)CC3)c2cc1OC`, for which the GI50 was 2.61 µM and the concentration for total growth inhibition (TGI) was 7.69 µM.
Take `CCN(CC)CCN(CC)CC.CCN(CC)CCN(CC)CC.[Cu+2].[Cu+2].[O-][Cl+3]([O-])([O-])[O-].[OH3+].[OH3+]`: the GI50 was 18.8 µM and the concentration for total growth inhibition (TGI) was determined as 35.2 µM.
`CC(C)C1CSC2N1C(=O)C2(OCc1ccccc1)C1CC1` (centres undefined) returned a total growth inhibition concentration (TGI) of over 100 µM.
Still for that read-out and setting: under `CN(C)c1ccc(/C=C/C=c2/c3ccccc3n3c2cc(-c2ccccc2)[n+]3C)cc1` stands 1.23 µM.
Compound `CN(C)CCNc1ccc2ncn3c4ccc(O)cc4c(=O)c1c23` came in with a TGI of 10.4 µM.
On the same count and under the same terms, as for `CC(=O)Nc1nc(C)c(S(=O)(=O)NC(=O)NC2NC(=O)NC2=O)s1` (centres undefined), the figure is over 100 µM.
`COC(NC(=O)Nc1ccc(C)cc1)(C(F)(F)F)C(F)(F)F` displayed a TGI of over 100 µM.
Regarding `CC(=O)OC12C(C)=C(C)C(=O)N1c1ccccc1N2C(C)=O` (centres undefined), the TGI was over 100 µM.
`CCOC(=O)CNC(=O)C(CCC(=O)N(C)O)NC(=O)CCC(N)C(=O)O` (centres undefined) gave a TGI of over 100 µM.
The compound `CCCCCCN(CCCCCC)CCC(=O)c1ccc2cc(Br)c3ccccc3c2c1` registered a TGI of over 100 µM.
As for `NC(=S)N/N=C/c1ccc(OC(=O)COc2cc(Cl)c(Cl)cc2Cl)cn1`, the GI50 is 4.62 µM and the TGI is over 100 µM.
Compound `O=C1CCC(C(=O)N2CSCC2C(=O)O)N1` (centres undefined) ([pGlu]-[Thz]-OH; configuration not given here) showed a TGI of over 100 µM.
Compound `O=c1[nH]c(NCc2cccnc2)nc2nc[nH]c12` showed a TGI of over 100 µM.
